According to article PMC7819943, “Rice protein-binding microarrays: a tool to detect cis-acting elements near promoter regions in rice”:
The list shows a part of the results.

The sequences below were run against T1, OsWOX13 (Oryza sativa, UniProt Q5QMM3 1-267) (assay: protein-binding microarray (RPBM); PBS, 2% BSA, 51.3 ng/ul salmon testes DNA, 50 uM zinc acetate, 200 nM TF, 25 C, 1 h; high values mean tight binding). Settings: protein: recombinant; tags: N-terminal polyhistidine and DsRed monomer fusion (pET32a); label: CyDye5-dUTP incorporated in the synthesized complementary strand; 3' TTTTT single-stranded linker to array surface; dsDNA, one strand shown.
T1 sequence: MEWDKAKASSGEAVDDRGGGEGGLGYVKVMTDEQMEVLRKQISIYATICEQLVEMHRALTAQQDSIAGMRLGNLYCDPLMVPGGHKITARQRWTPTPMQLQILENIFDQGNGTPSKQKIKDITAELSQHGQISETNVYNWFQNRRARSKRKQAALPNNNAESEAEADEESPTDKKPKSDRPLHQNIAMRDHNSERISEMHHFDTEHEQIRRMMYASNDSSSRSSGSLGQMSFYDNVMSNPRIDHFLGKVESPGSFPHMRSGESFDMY
Method in brief: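 For the binding signal, per-feature fluorescence intensity was read in arbitrary units on an Axon 4000B scanner. Before scanning, a 2% BSA-blocked custom Agilent array made double-stranded with Cy5-dUTP was washed after 1 h at 25 °C with 200 nM protein and 50 µM zinc acetate. The proteins were Ni–NTA-purified transcription factors with N-terminal polyhistidine and DsRed fusions, expressed in E. coli BL21-CodonPlus.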

Sequence | binding signal
CGAAATTTAATAAACATAAATACTGTGCACTAGATAAAGACGGAGTCACCTAGTGCAG | 6960 fluorescence intensity (a.u.)
GATTTAAACTACACTTAAATTAAATAATTCTATTAGTGGTCGGAGTCACCTAGTGCAG | 11400 fluorescence intensity (a.u.)
CTACAGTCTTCAATTAAGTTAGTCGCCGTTCCGCTGTATCCGGAGTCACCTAGTGCAG | 6180 fluorescence intensity (a.u.)
AATTACACTATAAATTTTAATAGATGTACTGCAATATTTGCGGAGTCACCTAGTGCAG | 3330 fluorescence intensity (a.u.)
ATTTGACAAAATGCAGTTATGATTTCTGAAGACGAGACATCGGAGTCACCTAGTGCAG | 5050 fluorescence intensity (a.u.)
TATCTCCCTGATTAGAGTGTGGCAAGAATAAGGTTCAAATCGGAGTCACCTAGTGCAG | 3180 fluorescence intensity (a.u.)
CAAATAATTTATTCATTATCATATTACATGAGTTTAGAATCGGAGTCACCTAGTGCAG | 22600 fluorescence intensity (a.u.)
TTAAATTTATTGCATGATGTAACAACAACAATCGTACTAGCGGAGTCACCTAGTGCAG | 37500 fluorescence intensity (a.u.)
GACCAATTTGATTTTCAGGTAAGCTCATAAGTTTATATGTCGGAGTCACCTAGTGCAG | 3840 fluorescence intensity (a.u.)
TGTTGATTAGTACATGATTAGTGAGTTGATTAGAATATGACGGAGTCACCTAGTGCAG | 46800 fluorescence intensity (a.u.)
TTTCGAAATGGCTCTAAATTGAAAGTGTTGCAGAAATTTTCGGAGTCACCTAGTGCAG | 6630 fluorescence intensity (a.u.)
CTTACTAATCAATCATAACCCTCTACCATTCCATTTCTTTCGGAGTCACCTAGTGCAG | 15800 fluorescence intensity (a.u.)
TCCTATCAATCAACGTCGTCGACGTGGAGCAGCCGCCGGTCGGAGTCACCTAGTGCAG | 35700 fluorescence intensity (a.u.)
AGAGAATTGAATTAATCCGTGTGATATATCACTAAAATTCCGGAGTCACCTAGTGCAG | 5900 fluorescence intensity (a.u.)
TACTCAAATCACGAATGACAGATCAACAGAAAGGAAATGTCGGAGTCACCTAGTGCAG | 5600 fluorescence intensity (a.u.)
AATATTTTGGTAATTTGAATAGTACTTGTGTTTGATTTCGCGGAGTCACCTAGTGCAG | 3990 fluorescence intensity (a.u.)
CATTCAAATTGAATGTAGTTTCAATTTATTTATAATAGCTCGGAGTCACCTAGTGCAG | 19800 fluorescence intensity (a.u.)
TTCCAAAATAAATCAACTTCTAGATTTTAAATTTATCTCACGGAGTCACCTAGTGCAG | 3210 fluorescence intensity (a.u.)
AACTTTAAATTTCTTCTGTAATAGATAAAGCATCTAAACCCGGAGTCACCTAGTGCAG | 5700 fluorescence intensity (a.u.)
TGCGCCTCAACAACTGAACTGATTGAGACAGTAGATGAAACGGAGTCACCTAGTGCAG | 4310 fluorescence intensity (a.u.)
ATGGATTGATAAGAACCGAATCACACCATTAAGAGGAGAGCGGAGTCACCTAGTGCAG | 31500 fluorescence intensity (a.u.)

Sequence | binding signal
ATTTGTTTGATTGTATATCCGGAAGACTGGTCCGGTATATCGGAGTCACCTAGTGCAG | 15500 fluorescence intensity (a.u.)
CTAATTACATTCCTAATTACATTCCCTTCACGCGCTCTGCCGGAGTCACCTAGTGCAG | 41200 fluorescence intensity (a.u.)
TGGGAGTATAAATCATCAGGACAATCAACCATAGCATCCACGGAGTCACCTAGTGCAG | 4210 fluorescence intensity (a.u.)
CAAATCATGGAGCAATTAGACTTAAAAGATTCGTATCGCACGGAGTCACCTAGTGCAG | 10000 fluorescence intensity (a.u.)
GTAATTAACAACCATTTTAAAGTTGAAAGATAATAAAAGTCGGAGTCACCTAGTGCAG | 4420 fluorescence intensity (a.u.)
ATGACATCAATCTGAATAGCCCTAAATCAGGCTGGCCTGGCGGAGTCACCTAGTGCAG | 6770 fluorescence intensity (a.u.)
TGTGATTAAATGATTCCTCCAGTGCTATATGCCTATATAACGGAGTCACCTAGTGCAG | 17500 fluorescence intensity (a.u.)
TCTCTGTGATTAAGCGGCGTCTTCCAGGACTCAAGCAGCGCGGAGTCACCTAGTGCAG | 3560 fluorescence intensity (a.u.)
ACTTAAATTTTACTCAGTTAGCGCTTTTAGGCTTGGATTTCGGAGTCACCTAGTGCAG | 7750 fluorescence intensity (a.u.)
TGGTTATTATATTGATTATAGATAATTTGAAGTTAGTAGTCGGAGTCACCTAGTGCAG | 31500 fluorescence intensity (a.u.)
AAGTTATTATACTAAATTACACCCACCTACTAAATTGTTGCGGAGTCACCTAGTGCAG | 3580 fluorescence intensity (a.u.)
CCTCTCTGATTCTCTGATTGATTCTGCAACGCATCACACGCGGAGTCACCTAGTGCAG | 22900 fluorescence intensity (a.u.)
GATAAAATTTATAACGAAACTGATTATCCATATATTATAACGGAGTCACCTAGTGCAG | 6060 fluorescence intensity (a.u.)
TTTCAATTGTACATGAATGACAGCATTTACAGTTTTGAATCGGAGTCACCTAGTGCAG | 4290 fluorescence intensity (a.u.)
TATTGATTGGATCACCACGTATAGTTAGCAAATCTCTAAACGGAGTCACCTAGTGCAG | 36200 fluorescence intensity (a.u.)
ATGGGTTCTGATTGAGGGATGGAATCATCGTATGTTCAACCGGAGTCACCTAGTGCAG | 30700 fluorescence intensity (a.u.)
CCGATGTTTGATTGTTCGTTTTATTTGAAAGCCTTTTATGCGGAGTCACCTAGTGCAG | 20800 fluorescence intensity (a.u.)
AAAGGTAGATAATTACTGACAATAGTAGGGTGTGTCACTACGGAGTCACCTAGTGCAG | 4470 fluorescence intensity (a.u.)
ATATTAATTTAAAGTATTAAATATAGACTACTTACAAAACCGGAGTCACCTAGTGCAG | 13700 fluorescence intensity (a.u.)
ATGATTTGGGGAATGACACTGAAGTATCCATCATTTTGCCCGGAGTCACCTAGTGCAG | 10800 fluorescence intensity (a.u.)
AATAATATAAATGACGGTTTTCCTAATAAACCGACACTTACGGAGTCACCTAGTGCAG | 3660 fluorescence intensity (a.u.)

Sequence | binding signal
GTGATAATTTGATACATAGTATTGTGGAATTTACTTTAAACGGAGTCACCTAGTGCAG | 15700 fluorescence intensity (a.u.)
TGTTAATCTTGCTGATTTTGTTATTGATTTTAATGCTATGCGGAGTCACCTAGTGCAG | 17300 fluorescence intensity (a.u.)
GGTACTTGACAGGACCGTCGACAGAAGGTTCGTCAGCTTACGGAGTCACCTAGTGCAG | 6100 fluorescence intensity (a.u.)
TGATAACAGATAAATCCCACTGTTGATAGCTGAAAGCTACCGGAGTCACCTAGTGCAG | 14500 fluorescence intensity (a.u.)
CAGACCAGCAGATTGATACCAACAAATTTATTGAGCAATGCGGAGTCACCTAGTGCAG | 23200 fluorescence intensity (a.u.)
TAAAATAGAAGCAAATTAGAATGCCGCGTTTGGATTGGATCGGAGTCACCTAGTGCAG | 6090 fluorescence intensity (a.u.)
ATCACACCCTAAATTGACTGTATTTGTGCTGAATTTTACACGGAGTCACCTAGTGCAG | 12300 fluorescence intensity (a.u.)
CTCTCAATTATAGGAAAACTAATTACTGACTACTTTCTCCCGGAGTCACCTAGTGCAG | 25000 fluorescence intensity (a.u.)
TTTTCCATCACATCAATCTGTCATACACAACTTTTCAGTCCGGAGTCACCTAGTGCAG | 12500 fluorescence intensity (a.u.)
GCACAAATAATTGTAACTCCATTGCCCCTCTGTATCTTCTCGGAGTCACCTAGTGCAG | 12500 fluorescence intensity (a.u.)
AGTTTAATTAAATTTATAGAAAGATAAAGCAATATTTTCACGGAGTCACCTAGTGCAG | 24400 fluorescence intensity (a.u.)
CTTCAGATATTAATTTGTGCCTCATGTAGTGTACCCAACACGGAGTCACCTAGTGCAG | 3530 fluorescence intensity (a.u.)
AGGGGCATTTAGATAATTGACAAACCTAATAGTTGCAAATCGGAGTCACCTAGTGCAG | 31600 fluorescence intensity (a.u.)
GACTAATTTTATCCAAAACATAAGATATTTATGATGGAAGCGGAGTCACCTAGTGCAG | 11600 fluorescence intensity (a.u.)
TCAAAATTAAAGGAGAAATTTGAAAAGACAAATGCTGCGTCGGAGTCACCTAGTGCAG | 3270 fluorescence intensity (a.u.)
AAATTAATAATTATGTGGGACCCAACTGAGAACTGTCTAACGGAGTCACCTAGTGCAG | 10600 fluorescence intensity (a.u.)
CGGCAGGTTTGCCCACTCCTGATTGGTCCACGTGGAGCTGCGGAGTCACCTAGTGCAG | 3900 fluorescence intensity (a.u.)
AGTTAAACTAATTACGTAATTGAACTAAGTAAAACTGGATCGGAGTCACCTAGTGCAG | 39200 fluorescence intensity (a.u.)
ACATTAATGTCAATTATACAATCTTAGTCTGCCAACACATCGGAGTCACCTAGTGCAG | 41600 fluorescence intensity (a.u.)
TAGTACTCTCAATTAATTACAAACCACACCATCAAATTCTCGGAGTCACCTAGTGCAG | 7020 fluorescence intensity (a.u.)
AAAGTAACAAAATAAACTCAAATTAGTAAGGTAAATTTGCCGGAGTCACCTAGTGCAG | 5980 fluorescence intensity (a.u.)

Sequence | binding signal
ATTGCAGATTGATTTATCTCGTCAAGATTGATGAGCATGCCGGAGTCACCTAGTGCAG | 63500 fluorescence intensity (a.u.)
ACAATCAGGAATAATTAAGACCCTGTCGTTGTCGGGTCTGCGGAGTCACCTAGTGCAG | 7880 fluorescence intensity (a.u.)
TAACTTCCTTGATTTGATCGGATGAAAGCAGCGACATTTGCGGAGTCACCTAGTGCAG | 10000 fluorescence intensity (a.u.)
ACCATCTATAATTAATGTAATAGACAATTCATACAACAGTCGGAGTCACCTAGTGCAG | 15500 fluorescence intensity (a.u.)
GAAATAATTAACATTTCGATTGCTGAGCTCCCCAAGTTCACGGAGTCACCTAGTGCAG | 28000 fluorescence intensity (a.u.)
GGTTCTTCTGAGCGGGGCCGGGGCGGGGCGGCAGCTGGGGCGGAGTCACCTAGTGCAG | 6700 fluorescence intensity (a.u.)
TCTTTACTTAATTAATTTGATGCATGTATGCCAGGATTTGCGGAGTCACCTAGTGCAG | 35800 fluorescence intensity (a.u.)
CATTTGCCTGATTAGTCCATTCCCCACGGTTTATATTTTCCGGAGTCACCTAGTGCAG | 10200 fluorescence intensity (a.u.)
CCGAAATTTGGATGACGAAATTCGAACAAATTTTGTTGCGCGGAGTCACCTAGTGCAG | 27200 fluorescence intensity (a.u.)
GTATAATTGCCCGGTAGGAACGGTCCTCCCTTGATGCTCCCGGAGTCACCTAGTGCAG | 27600 fluorescence intensity (a.u.)
TTTAACAGACAACGAAATTTTAGTAGAGATAACTCTTCTCCGGAGTCACCTAGTGCAG | 13200 fluorescence intensity (a.u.)
ATTAATGTATATCATTTAACAAACATGCAAATTTAAATGCCGGAGTCACCTAGTGCAG | 13900 fluorescence intensity (a.u.)
TCTTCTGATTATCTGATTATGGAAGGCATTAAGACACGGTCGGAGTCACCTAGTGCAG | 39200 fluorescence intensity (a.u.)
GCGCTATGATTAATTAATCACCTCGATCCGCCAGCTCGATCGGAGTCACCTAGTGCAG | 51100 fluorescence intensity (a.u.)
CCTCGCTGTAACCCTCACAGTTGCGAGATAATCTCCGAAACGGAGTCACCTAGTGCAG | 3350 fluorescence intensity (a.u.)
TGTTTATTTTAATTAGATGAATCATCAAATGTTTATCAAACGGAGTCACCTAGTGCAG | 11100 fluorescence intensity (a.u.)
TTTTAAAATAAATTAAATAAGACGTACGATTAAAGTTGGACGGAGTCACCTAGTGCAG | 5580 fluorescence intensity (a.u.)
CACCATTTTATGTAGATTGGCAAGGGCTCTCGTGGTGATGCGGAGTCACCTAGTGCAG | 7900 fluorescence intensity (a.u.)
GGAAACATTTAGTTAATTGTAGGAATTGTACTTCCCACGACGGAGTCACCTAGTGCAG | 11600 fluorescence intensity (a.u.)
GGGGTATCAATCAGGCTGGAGGCACATTTAAGGGAGCCATCGGAGTCACCTAGTGCAG | 18700 fluorescence intensity (a.u.)
ACGAGGTCTTGATTGCACCACTAAAACAAAAGAGATCGATCGGAGTCACCTAGTGCAG | 5640 fluorescence intensity (a.u.)
